From PubChem BioAssay (NCATS)
Where “and” joins values, the source holds several entries; their conditions need not be identical. Equal values may be shown once. Inconclusive means that the source gave no clear call. Such entries were picked first, then a sample of the others. Potencies of inconclusive entries are doubtful fits and often do not repeat. Calls of active or inactive are those of the source. Calls come from the whole dose curve; as a rule, active = well fitted cell-killing curve with a large enough effect; inconclusive = small, poorly fitted or top-dose-only effect; inactive = no such curve, though single readings can be large or run the other way.

Assay: qHTS of pediatric cancer cell lines to identify multiple opportunities for drug repurposing: Primary screen for OHS-50 cells (AID 1347103); note: nearly all actives have a fitted effect of over 40% in size;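 for activity change, negative = cytotoxic: plate controls were DMSO neutral control for no effect and bortezomib positive control for full effect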
Settings: OHS-50 osteosarcoma viability, CellTiter-Glo luminescence, 48 h; series mostly up to 57.3 µM; activity change, negative = cytotoxic: at the top concentration
Summary of the method: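 Cells (500-1,000/well) rested 5 h, then received compounds for 48 h; metabolically active cells were measured by CellTiter-Glo luminescence. Final concentrations spanned up to 46 µM (MIPE, 11-point) or 0.59 nM-46 µM (NPC, 8-point) in primary screens, 11-point in follow-ups.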
Potency is the fitted concentration of half-maximal effect; tags give direction and shape of the fitted curve.

With `CC(C)(C)NC[C@H](O)COc1nsnc1N1CCOCC1` as the compound, how does the “activity change, negative = cytotoxic” value read?
Its value is inactive: -7.96%.

For `COC(=O)C1=C(C)NC(C)=C(C(=O)OC)C1c1ccccc1[N+](=O)[O-]`, which Potency is on record?
The Potency was inconclusive: 38.9 µM [cytotoxic, partial curve, poor fit].

For `CCC[C@@H]1C[C@@H](C(=O)N[C@@H]([C@H]2O[C@H](SC)[C@H](O)[C@@H](O)[C@H]2O)[C@@H](C)O)N(C)C1`, which Potency is on record?
The Potency was “inactive”.

With `CN(Cc1cc(Br)cc(Br)c1N)C1CCCCC1` as the compound, how does the Potency read?
Its Potency is inconclusive: 12.3 µM [cytotoxic, partial curve, poor fit] and inconclusive: 21.7 µM [cytotoxic, partial curve].

For `CCOC(=O)N1CCC(n2c(=O)[nH]c3cc(Cl)ccc32)CC1`, which Potency is on record?
Its Potency is inconclusive: 17.4 µM [cytotoxic, partial curve].

With `CNC(=O)Oc1ccc2c(c1)[C@]1(C)CCN(C)[C@@H]1N2C` as the compound, how does the “activity change, negative = cytotoxic” value read?
Its value is inactive: 21.2%.

With `Cc1ccc(O)c(-n2nc3ccccc3n2)c1` as the compound, how does the “activity change, negative = cytotoxic” value read?
The value was inactive: -11.3%.

With `COc1ccc(-c2cc(=S)ss2)cc1` as the compound, how does the Potency read?
Its Potency is inconclusive: 24.6 µM [cytotoxic, single point].

Which Potency does the source give for `CCCCC(CC)CN1CN(CC(CC)CCCC)CC(C)(N)C1` (configuration not stated) here?
The Potency was inconclusive: 21.9 µM [cytotoxic, partial curve].

For `O=C(NNC(=O)c1ccc(CNS(=O)(=O)c2ccc(F)c(Cl)c2)cc1)c1ccccc1`, which “activity change, negative = cytotoxic” value is on record?
The value was inactive: 54.8%.

With `COc1ccc(-c2coc3cc(O)ccc3c2=O)cc1` as the compound, how does the “activity change, negative = cytotoxic” value read?
The value was inactive: -7.74%.

Which Potency does the source give for `Cc1[nH]cnc1CN1CCc2c(c3ccccc3n2C)C1=O` here?
The Potency was inconclusive: 15.5 µM [cytotoxic, partial curve].
